Measured values taken from article PMC4336329 (PLoS ONE, 2015).
The campaign covered roughly 310,000 compounds. About 2,200 (0.71%) showed an effect of 50% or more. The effect is printed as a negative number. The list shows a part of the results.

target: human ether-à-go-go-related gene (hERG) potassium channel (human, UniProt Q12809); experiment: primary screen, population patch clamp on CHO cells stably expressing hERG
Sequence (Q12809 whole entry, looked up): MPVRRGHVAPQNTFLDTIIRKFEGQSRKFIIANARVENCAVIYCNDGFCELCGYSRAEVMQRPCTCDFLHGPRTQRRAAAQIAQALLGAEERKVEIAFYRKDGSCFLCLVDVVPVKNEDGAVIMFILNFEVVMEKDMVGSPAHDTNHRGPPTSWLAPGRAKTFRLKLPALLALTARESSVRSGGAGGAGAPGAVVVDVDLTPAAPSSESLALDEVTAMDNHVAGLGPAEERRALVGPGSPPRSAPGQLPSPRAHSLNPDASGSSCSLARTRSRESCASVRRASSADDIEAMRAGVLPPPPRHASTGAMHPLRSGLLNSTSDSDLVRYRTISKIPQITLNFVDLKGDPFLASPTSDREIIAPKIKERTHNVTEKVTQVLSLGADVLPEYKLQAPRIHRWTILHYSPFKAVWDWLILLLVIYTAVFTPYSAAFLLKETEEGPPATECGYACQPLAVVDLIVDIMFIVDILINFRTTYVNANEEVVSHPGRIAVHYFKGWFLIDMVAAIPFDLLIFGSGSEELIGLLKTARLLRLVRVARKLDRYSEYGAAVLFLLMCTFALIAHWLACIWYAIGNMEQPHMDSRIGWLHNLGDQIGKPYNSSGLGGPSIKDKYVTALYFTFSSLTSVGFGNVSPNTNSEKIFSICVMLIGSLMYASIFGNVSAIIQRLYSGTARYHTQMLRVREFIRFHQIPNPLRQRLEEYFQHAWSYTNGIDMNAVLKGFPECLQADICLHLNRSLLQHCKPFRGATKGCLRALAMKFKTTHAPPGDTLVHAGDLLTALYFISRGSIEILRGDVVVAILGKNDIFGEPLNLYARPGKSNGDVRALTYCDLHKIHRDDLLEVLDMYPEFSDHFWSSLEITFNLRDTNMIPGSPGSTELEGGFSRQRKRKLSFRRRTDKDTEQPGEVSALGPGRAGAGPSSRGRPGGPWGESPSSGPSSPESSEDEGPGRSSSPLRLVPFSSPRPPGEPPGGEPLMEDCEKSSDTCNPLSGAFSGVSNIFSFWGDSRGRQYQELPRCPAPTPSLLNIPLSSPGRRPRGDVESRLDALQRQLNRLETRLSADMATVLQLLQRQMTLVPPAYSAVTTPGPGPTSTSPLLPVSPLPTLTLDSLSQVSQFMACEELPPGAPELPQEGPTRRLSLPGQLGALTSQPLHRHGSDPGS

Structure (SMILES) | hERG current change (%, negative = inhibition) at 1uM [%]
Cc1nnc(SCC(=O)NC(=O)NC2CCCC2)n1N | 17.2
O=C(Nc1cccc(S(=O)(=O)N2CCOCC2)c1)c1ccc2c(=O)n3c(nc2c1)CCCCC3 | 0.941
O=C(O)C1CC=CCC1C(=O)NNc1ccccc1 (stereo not drawn) | 13.8
Cc1cc(C)cc(NC(=O)C(NCCN2CCOCC2)c2ccccc2)c1.O=C(O)C(=O)O (stereo not drawn) | 12.1
CCCCN(C)CCNC(=O)c1nn(-c2ccc(OC)cc2)c(=O)c2c1c1ccccc1n2C | 9.67
CN(CC(=O)Nc1c(Cl)cccc1Cl)C(=O)c1cccc(S(=O)(=O)NCc2ccccc2)c1 | 14.9
CCN(C(=O)COC(=O)Cn1cnc2c1c(=O)n(C)c(=O)n2C)C1CCS(=O)(=O)C1 (stereo not drawn) | 13.4
CCN(CCn1cccn1)C(=O)CC1C(=O)NCCN1Cc1ccc(OC)c(OC)c1 (stereo not drawn) | 2.76
Cc1ccc(C(=O)n2nc(-c3cccnc3)nc2N)cc1 | 16.7
CC(C)(C)OC(=O)N1CCN(C(=O)OCC2c3ccccc3-c3ccccc32)CC1C(=O)O (stereo not drawn) | 18.6
O=C(COc1ccc(Br)cc1)Nc1ccc(Cc2ccncc2)cc1 | -2.24
CC(=O)NC1C(=O)N=C(SCC(=O)Nc2cccc(Cl)c2)NC1=O (stereo not drawn) | 2.94
CC(C)C(=O)Nc1nnc(CCN(CCc2nnc(NC(=O)C(C)C)s2)[N+](=O)[O-])s1 | 5.05
CC(C)CNC(=O)COc1ccccc1[N+](=O)[O-] | 10.4
COc1ccc(CNC(=O)/C=C/c2ccco2)cc1OC | 10.2
CN(C)C(=O)Oc1ccc2ccccc2c1Cl | -4.25
COc1ccccc1C(=O)N(NC(=O)Oc1ccccc1)C(C)(C)C | 12.2
CN1CCN(CCNC(=O)Nc2ccc([N+](=O)[O-])cc2)CC1 | 10.7
Cc1ccc(C(=O)N/N=C/c2c[nH]c3ccccc23)o1 | 14.4
O=C(Nc1ccc2c(c1)oc1ccccc12)N1CCOCC1 | -5.38
CC(C)CCN1C(=O)c2ccc(C(=O)Nc3ccccn3)cc2C1=O | 6.24
COc1ccc(OC)c(C(=O)NC(CC(N)=O)c2ccc(N3CCC(N4CCCCC4)CC3)c([N+](=O)[O-])c2)c1 (stereo not drawn) | 2.16
COc1ccc(N=C2NC(=O)/C(=C/C=C/c3ccccc3)S2)cc1 | 18

Structure (SMILES) | hERG current change (%, negative = inhibition) at 1uM [%]
CC1=C(C(=O)Nc2cccc(C(=O)NC3CCCC(C)C3C)c2)SCCO1 (stereo not drawn) | 15.3
Cc1cccc(-n2ncc3c(N(CCO)CCO)ncnc32)c1 | 17.2
CC(C)c1cc(C(C)C)c(S(=O)(=O)NNC(=O)c2ccncc2)c(C(C)C)c1 | 5.32
Cn1c(-c2ccc3ccccc3n2)nc2cnccc21 | 4.37
Cc1ccc(C2=CC(=O)C[C@H](c3ccc(F)cc3)C2)cc1 | 14.5
COCCCn1nnnc1SCC(=O)Nc1ccc2c(c1)OCCO2 | 4.31
O=C(c1cc(Br)ccc1Cl)N1CCN(c2ccc(N3CCOCC3)nn2)CC1 | 5.71
C/C(=N/NC(=O)c1ccncc1)c1ccc(NC(=O)c2ccc(Cl)cc2Cl)cc1 | 9.64
Cc1ccc(OCCn2cnc(Cl)c2Cl)cc1 | 11.8
COC(=O)c1c(C)oc(C)c1S(=O)(=O)NCC1CC1 | 1.85
CCOC(=O)c1c(C)[nH]c(C(=O)COC(=O)/C=C/c2cccc(OC)c2OC)c1C | 5.33
N/C(=N\OC(=O)COc1ccccc1)c1ccncc1 | 9.62
O=C(NNC(=O)C1CC1c1ccccc1)c1cccc([N+](=O)[O-])c1 (stereo not drawn) | -2.23
COc1cc(/C=C2\SC(c3ccc(C)cc3)=NC2=O)cc(OC)c1O | 16.2
CCCN(CCC)S(=O)(=O)c1ccc(C)cc1 | 9
CCCc1nc(-c2ccc(-c3ccc(F)cc3)cc2)no1 | 9.29
COc1cc(C)c(S(=O)(=O)NCc2ccc3c(c2)OCO3)cc1C | 5.39
CCOc1ncccc1C(=O)Nc1ccc(-c2cn3ccsc3n2)cc1 | 7.42
Nc1cc(N)nc(CS)n1 | 8.73
S=c1[nH]ccn1-c1cccc(Cl)c1Cl | 15.8
C/C(=N/NC(=O)C(=O)N/N=C(/C)c1ccccc1)c1ccccc1 | 12.7
Cl.O=C(Cc1ccc(Cl)cc1)NCCN1CCCC1 | -7.67
COc1ccccc1NS(=O)(=O)c1ccc(C)c(NC(=O)NCCCl)c1 | -3.74

Structure (SMILES) | hERG current change (%, negative = inhibition) at 1uM [%]
S=C(Nc1ccccc1)N1CCCN1c1ccccc1 | 20.1
Cn1cc(CN2CCN(c3ccccc3)CC2)c2ccccc21 | -12.4
CC(=O)/C(N=Nc1ccc(SC(F)F)cc1)=C(\C)O | 7.35
COc1ccccc1N1CCN(Cc2ccc(OC)c(OC)c2OC)CC1 | -10.5
CCOC(=O)c1c(C)[nH]c(C(=O)/C(C#N)=C/c2ccc(OC(F)F)c(OC)c2)c1C | 18.6
Cc1ccc(-c2cc(C(=O)O)n[nH]2)o1 | 12.5
Cc1ccccc1NCC(=O)N/N=C\c1ccc2c(c1)OCO2 | 9.17
COCCCNC(=O)c1c[nH]c2ccc(S(=O)(=O)N3CCC4(CC3)OCCO4)cc2c1=O | 15.1
O=C(CCN1C(=O)c2ccccc2C1=O)Nc1ccc(-c2nc3ccccc3s2)cc1 | 23
Cc1ccccc1NC(=O)CSCCO | 7.27
CC(Cc1cccs1)NC(=S)Nc1ccc(Cl)cc1 (stereo not drawn) | 10.9
CN(C(=O)CSc1ccccc1C(=O)O)C1CCCCC1 | -5.12
CCNC(=O)COC(=O)/C=C/c1c(C)nn(Cc2cccc(OC)c2)c1Cl | 13.7
c1csc(-c2cn3ccc4ccccc4c3n2)c1 | 12
Br.C=CCN1CCc2c(cc(O)c(O)c2Cl)C(c2ccccc2)C1 (stereo not drawn) | -12.2
CN(C)S(=O)(=O)c1cccc(NC(=O)c2ccc(N3CCOCC3)c([N+](=O)[O-])c2)c1 | 12.1
CCOCCCNC(=O)CSCc1nc(-c2ccc(SC)cc2)oc1C | 9.11
O=C(O)c1cc(Oc2ccc(C(F)(F)F)cc2Cl)ccc1[N+](=O)[O-] | 16
Cc1nc(Oc2ccc(Cl)cc2)c2oc3ccccc3c2n1 | 9.34
O=C(Cc1cc(=O)[nH]c(=O)[nH]1)NCCN1CCOCC1 | 8.01
COc1ccc(Cl)cc1C(=O)NCc1cnn(C)c1C | 3.02
CCOc1ccc(CCNC(=O)CN2C(=O)CCSc3ccccc32)cc1OCC | 7.66
CCOC(=O)C1CCN(C(=O)c2ccc3c(c2)S(=O)(=O)c2ccccc2C3=O)CC1 | -12.7

Structure (SMILES) | hERG current change (%, negative = inhibition) at 1uM [%]
CSc1ncccc1C(=O)Nc1cccc(C)n1 | -4.84
COc1ccc(NC(=O)c2ccc(OC)c(S(=O)(=O)N3CCCCC3C)c2)cn1 (stereo not drawn) | 4.14
COc1cc(C(C(=O)NC2CCCC2)N(Cc2ccco2)C(=O)c2snc(C(N)=O)c2N)cc(OC)c1OC (stereo not drawn) | 2.71
O=C(COC(=O)c1cc2ccccc2o1)NCc1ccco1 | 9.22
O=CC1=C(N2CCOCC2)/C(=C\c2ccccc2)CC1 | 20.8
O=C(NNC(=O)c1ccccc1OCc1ccc(F)cc1)c1ccccc1O | 25.3
Cn1c(SCCCC(=O)c2ccc(Br)cc2)nnc1-c1ccncc1 | -51.1
Cc1ccc2c(c1)OC(=O)CC2c1ccccc1 (stereo not drawn) | 3.63
COCCN(C(=O)CSc1nc(N)cc(=O)[nH]1)c1c(N)n(Cc2ccccc2)c(=O)[nH]c1=O | 7.66
Cc1ccc(-n2c(C)cc(C(=O)CN3C(=O)C(=O)N(C4CCCC4)C3=O)c2C)cc1 | 7.74
S=c1[nH]nc(-c2cccnc2)n1-c1ccc2c(c1)OCCO2 | 14.9
COc1cccc2cc(S(=O)(=O)c3ccccc3)c(=Nc3ccc4c(c3)OCCO4)oc12 | 8.49
COC(=O)c1cc2ccccc2c(-c2c(OC)c(C(=O)OC)cc3ccccc23)c1OC | 8.13
Cc1ccc(NC(=O)Cn2nnc(C(=O)NCc3cccs3)c2N)cc1F | 15.9
CC(Sc1ccc(Cl)cc1)C(=O)Nc1ccccc1C(=O)N1CCOCC1 (stereo not drawn) | 3.5
Cc1ccc(CCNC(=O)CN(c2cc(C)cc(C)c2)S(=O)(=O)c2c(C)noc2C)cc1 | 15.2
O=C(Nc1ccc(F)cc1)c1cccnc1 | 11.7
C[C@H]1CC[C@]2(O[C@H](CCO)C[C@@H](O)[C@@H]2O)O1 | 10.7
O=C(Nc1ccc(-c2ccc3nncn3n2)cc1)c1ccc(Br)o1 | -1.44
O=C(N/N=C/c1cc(Br)ccc1OC(=O)c1ccc(Br)cc1)c1ccncc1 | 7.9
CCCOc1ccc(C(=O)NCCN2CCOCC2)cc1.Cl | 25
